# In all, about 33,000 sequences were measured (“E-score (-0.5 to 0.5)”: median about -0.054, highest 2% from about 0.39 on). Some of the results follow.
# Target: Ylr278c (UniProt Q05854)
# Assay: PBM E-score (8-mer binding enrichment) (E-score (-0.5 to 0.5)); higher = stronger / more preferred TF binding; most listed sequences are background and not binding sites
# Settings: protein concentration: 200 nM; construct: GST-DNA-binding domain
# In short: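 Universal all-10-mer Agilent arrays, double-stranded by primer extension on fresh or once-stripped slides, were probed with about 100-200 nM GST-tagged yeast transcription factors made by PURExpress. Fluorescent anti-GST detected bound protein, and masliner normalised the scans. E-scores from the Universal PBM Analysis Suite were given to each ungapped eight-base word pooled with its reverse complement.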
row,Sequence,PBM E-score
1,CTACGCCC,-0.133
2,TAGTTCGA,-0.231
3,AGTAGGGC,0.0867
4,CCACCAGG,-0.143
5,ACCCTTTG,-0.0318
6,CGTTTTAC,0.00074
7,GTGAGTAA,-0.219
8,ATTAAATC,0.0829
9,ATTGATTA,0.0333
10,GTATAATA,0.0966
11,ACGTCGCC,-0.0817
12,ACCGGGGG,0.293
13,GTCCTAAA,-0.00678
14,TACAGGCA,-0.178
15,GTGTACAC,-0.163
16,CGTGTTAC,0.0429
17,AGGGCATA,-0.23
18,GACGTAGA,-0.185
19,CAATGTAG,0.0845
20,AGGTCACC,-0.0994
21,AGCCAGAG,-0.0653
22,AGATCATG,-0.203
23,ACGCCGGG,0.365
24,ACCCAGCT,-0.0898

row,Sequence,PBM E-score
1,CCTGTCTC,-0.133
2,AAGTGCAC,0.0384
3,AATAATAC,-0.0178
4,ACACGCTA,-0.0117
5,GCGACTTA,-0.0341
6,AGTCATGA,-0.017
7,CTCCGTAC,0.358
8,CGATAAAG,0.128
9,CGCTAAGC,0.00246
10,AGGACTGA,-0.0689
11,AGTCATTA,-0.219
12,ACAGAGAC,0.0175
13,ACACTCGC,0.075
14,CGGTGGTA,0.0617
15,GTAGGTCA,-0.158
16,GAGTTGGA,0.00758
17,GACATCCA,-0.163
18,GCCAATCA,-0.267
19,GAGGCAGC,-0.115
20,ACCTGCAC,-0.0901
21,CATATCGC,0.0136
22,GGGGGAAC,-0.12
23,GAAATTGC,0.089
24,GGTTACAC,-0.142

row,Sequence,PBM E-score
1,AAACCACG,-0.0455
2,CCCGAGAC,0.185
3,ATTTGACG,0.0515
4,CCTCCCTC,0.0572
5,GCAACTCC,0.327
6,GAACCCAA,-0.177
7,ATCAGATG,-0.225
8,GGATCTCA,0.0213
9,CGTGATAC,-0.152
10,AATGCGGC,0.171
11,GTATGGGA,-0.174
12,CCTATTGC,-0.127
13,AAATACCT,-0.0551
14,AAATTCTC,0.0592
15,GCATGGGA,-0.0116
16,CGACCTGA,-0.183
17,GATCCCAA,-0.0308
18,ACACTGGA,-0.185
19,GCTGTATA,-0.289
20,AACGCCGT,0.272
21,AATCAGCG,0.139
22,GACATACA,0.148
23,ACTAACTG,0.0376
24,CATTTGTC,0.0384

row,Sequence,PBM E-score
1,GTAGAGGA,-0.236
2,GCCAGAGA,-0.194
3,CATGAGGG,-0.13
4,ACCCTCGG,0.244
5,CATACTGA,-0.172
6,GAAGGTTA,-0.0951
7,CCCTTGAG,-0.158
8,GCCACTGA,-0.0434
9,ATAACTTC,0.0592
10,AAGGAGGA,-0.247
11,CCATAACG,-0.0935
12,GAGCCTGA,-0.111
13,GGAAAATA,0.189
14,AACGTCTA,-0.118
15,AGAGAAGG,-0.135
16,ATTGAATC,-0.143
17,ATTTCACG,0.152
18,AGACTAAG,-0.103
19,GAGCTTGA,-0.109
20,CGGAACCC,0.341
21,ACCTGCTA,-0.16
22,ACTTATCC,0.148

# — the supplement of paper PMC3334620
